No constants are given. Whether binding was seen depends on the method and setting. Binding seen in cells or lysates may run through a third protein. Some entries that bind do so weakly or less than the wild type. For some assays here: Tags and fused reporters may be left off the sequences shown. One block for each binder: values may come before it.
How the values were obtained:
[1] = target: T1, Flag-MDA5 (full-length, FL-MDA5) (UniProt Q9BYX4); experiment: co-IP; 293T cells cotransfected; whole cell lysates immunoprecipitated with anti-Flag beads, immunoblotted with anti-HA and anti-Flag (S5A, Fig 5I, S6A); in S5E with 20 ng Flag-MDA5 and intracellular HMW Poly(I:C) at the indicated time points
T1 sequence: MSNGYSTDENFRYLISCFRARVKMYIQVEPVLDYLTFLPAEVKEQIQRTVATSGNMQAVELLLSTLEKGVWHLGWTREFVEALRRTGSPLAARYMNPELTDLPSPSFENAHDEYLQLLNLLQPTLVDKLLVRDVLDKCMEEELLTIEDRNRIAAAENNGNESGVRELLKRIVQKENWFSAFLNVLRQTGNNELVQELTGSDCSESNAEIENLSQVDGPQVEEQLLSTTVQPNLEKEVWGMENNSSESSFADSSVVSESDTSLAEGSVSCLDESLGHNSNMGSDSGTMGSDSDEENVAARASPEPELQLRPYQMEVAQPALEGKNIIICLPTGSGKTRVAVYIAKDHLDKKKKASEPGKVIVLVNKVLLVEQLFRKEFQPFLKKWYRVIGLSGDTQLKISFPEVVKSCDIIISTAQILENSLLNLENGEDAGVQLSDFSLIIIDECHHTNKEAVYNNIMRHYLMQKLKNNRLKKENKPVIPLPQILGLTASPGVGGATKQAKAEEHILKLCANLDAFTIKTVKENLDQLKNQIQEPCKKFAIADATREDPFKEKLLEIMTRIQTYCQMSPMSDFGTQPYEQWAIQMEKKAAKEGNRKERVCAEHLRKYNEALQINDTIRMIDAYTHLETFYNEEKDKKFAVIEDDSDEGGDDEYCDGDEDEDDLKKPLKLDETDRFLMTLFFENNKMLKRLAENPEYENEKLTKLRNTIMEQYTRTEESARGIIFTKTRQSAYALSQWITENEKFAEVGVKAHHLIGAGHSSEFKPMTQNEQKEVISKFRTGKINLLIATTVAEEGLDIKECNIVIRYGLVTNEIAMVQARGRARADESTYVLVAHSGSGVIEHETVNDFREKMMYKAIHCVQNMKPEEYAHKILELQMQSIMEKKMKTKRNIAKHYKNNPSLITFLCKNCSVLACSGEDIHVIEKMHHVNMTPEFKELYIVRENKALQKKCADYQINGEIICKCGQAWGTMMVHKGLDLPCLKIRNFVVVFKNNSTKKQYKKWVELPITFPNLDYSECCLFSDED

[2] = target: T2, mDHX29 stably transfected in MEFs (mouse) (UniProt Q6PGC1); experiment: co-IP; DHX29 stably transfected (mDHX29) MEFs stimulated with HMW Poly(I:C) at the indicated time points; immunoprecipitation with anti-Flag beads, immunoblot with anti-MDA5
T2 sequence: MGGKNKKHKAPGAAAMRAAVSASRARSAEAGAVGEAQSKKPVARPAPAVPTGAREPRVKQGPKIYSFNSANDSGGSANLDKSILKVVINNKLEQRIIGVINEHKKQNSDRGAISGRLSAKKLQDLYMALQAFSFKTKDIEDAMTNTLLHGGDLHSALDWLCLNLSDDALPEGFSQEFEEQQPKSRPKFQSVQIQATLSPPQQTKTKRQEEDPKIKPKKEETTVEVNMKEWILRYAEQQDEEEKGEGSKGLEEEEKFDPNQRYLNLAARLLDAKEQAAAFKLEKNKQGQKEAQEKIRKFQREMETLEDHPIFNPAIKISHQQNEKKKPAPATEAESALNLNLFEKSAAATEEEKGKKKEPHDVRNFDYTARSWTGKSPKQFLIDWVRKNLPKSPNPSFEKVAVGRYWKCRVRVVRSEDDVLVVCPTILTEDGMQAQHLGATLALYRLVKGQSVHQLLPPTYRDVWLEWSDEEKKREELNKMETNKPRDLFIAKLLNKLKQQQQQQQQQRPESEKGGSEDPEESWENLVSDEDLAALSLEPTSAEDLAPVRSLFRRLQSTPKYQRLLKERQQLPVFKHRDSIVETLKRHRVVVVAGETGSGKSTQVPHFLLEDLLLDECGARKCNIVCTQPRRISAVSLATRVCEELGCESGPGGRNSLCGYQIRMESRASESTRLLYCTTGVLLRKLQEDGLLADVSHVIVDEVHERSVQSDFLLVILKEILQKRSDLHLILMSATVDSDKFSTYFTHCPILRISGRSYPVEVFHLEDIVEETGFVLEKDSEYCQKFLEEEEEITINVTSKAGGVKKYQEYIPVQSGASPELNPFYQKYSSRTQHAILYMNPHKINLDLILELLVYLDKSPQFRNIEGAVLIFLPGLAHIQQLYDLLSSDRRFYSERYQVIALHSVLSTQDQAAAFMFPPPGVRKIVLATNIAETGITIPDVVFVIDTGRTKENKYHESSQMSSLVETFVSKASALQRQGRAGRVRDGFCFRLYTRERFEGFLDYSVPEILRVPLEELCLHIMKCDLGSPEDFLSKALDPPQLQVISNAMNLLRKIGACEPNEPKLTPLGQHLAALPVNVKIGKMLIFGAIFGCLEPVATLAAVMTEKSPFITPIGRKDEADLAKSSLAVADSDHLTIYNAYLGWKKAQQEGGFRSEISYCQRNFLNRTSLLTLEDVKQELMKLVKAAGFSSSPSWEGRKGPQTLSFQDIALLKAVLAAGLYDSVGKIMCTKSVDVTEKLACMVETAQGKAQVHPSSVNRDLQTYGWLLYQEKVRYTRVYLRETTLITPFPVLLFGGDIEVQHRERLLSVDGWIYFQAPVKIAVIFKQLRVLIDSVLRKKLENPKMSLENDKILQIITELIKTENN

- binding [1]: binds
B1: HA-DHX29a [1-530 aa] (domain or fragment, UniProt Q7Z478 1-530)
chain: MGGKNKKHKAPAAAVVRAAVSASRAKSAEAGIAGEAQSKKPVSRPATAAAAAAGSREPRVKQGPKIYSFNSTNDSSGPANLDKSILKVVINNKLEQRIIGVINEHKKQNNDKGMISGRLTAKKLQDLYMALQAFSFKTKDIEDAMTNTLLYGGDLHSALDWLCLNLSDDALPEGFSQEFEEQQPKSRPKFQSPQIQATISPPLQPKTKTYEEDPKSKPKKEEKNMEVNMKEWILRYAEQQNEEEKNENSKSLEEEEKFDPNERYLHLAAKLLDAKEQAATFKLEKNKQGQKEAQEKIRKFQREMETLEDHPVFNPAMKISHQQNERKKPPVATEGESALNFNLFEKSAAATEEEKDKKKEPHDVRNFDYTARSWTGKSPKQFLIDWVRKNLPKSPNPSFEKVPVGRYWKCRVRVIKSEDDVLVVCPTILTEDGMQAQHLGATLALYRLVKGQSVHQLLPPTYRDVWLEWSDAEKKREELNKMETNKPRDLFIAKLLNKLKQQQQQQQQHSENKRENSEDPEESWENLVSD

- binding [2]: binds
B2: endogenous MDA5 (MEFs) (protein, UniProt Q8R5F7 1-1025)
chain: MSIVCSAEDSFRNLILFFRPRLKMYIQVEPVLDHLIFLSAETKEQILKKINTCGNTSAAELLLSTLEQGQWPLGWTQMFVEALEHSGNPLAARYVKPTLTDLPSPSSETAHDECLHLLTLLQPTLVDKLLINDVLDTCFEKGLLTVEDRNRISAAGNSGNESGVRELLRRIVQKENWFSTFLDVLRQTGNDALFQELTGGGCPEDNTDLANSSHRDGPAANECLLPAVDESSLETEAWNVDDILPEASCTDSSVTTESDTSLAEGSVSCFDESLGHNSNMGRDSGTMGSDSDESVIQTKRVSPEPELQLRPYQMEVAQPALDGKNIIICLPTGSGKTRVAVYITKDHLDKKKQASESGKVIVLVNKVMLAEQLFRKEFNPYLKKWYRIIGLSGDTQLKISFPEVVKSYDVIISTAQILENSLLNLESGDDDGVQLSDFSLIIIDECHHTNKEAVYNNIMRRYLKQKLRNNDLKKQNKPAIPLPQILGLTASPGVGAAKKQSEAEKHILNICANLDAFTIKTVKENLGQLKHQIKEPCKKFVIADDTRENPFKEKLLEIMASIQTYCQKSPMSDFGTQHYEQWAIQMEKKAAKDGNRKDRVCAEHLRKYNEALQINDTIRMIDAYSHLETFYTDEKEKKFAVLNDSDKSDDEASSCNDQLKGDVKKSLKLDETDEFLMNLFFDNKKMLKKLAENPKYENEKLIKLRNTILEQFTRSEESSRGIIFTKTRQSTYALSQWIMENAKFAEVGVKAHHLIGAGHSSEVKPMTQTEQKEVISKFRTGEINLLIATTVAEEGLDIKECNIVIRYGLVTNEIAMVQARGRARADESTYVLVTSSGSGVTEREIVNDFREKMMYKAINRVQNMKPEEYAHKILELQVQSILEKKMKVKRSIAKQYNDNPSLITLLCKNCSMLVCSGENIHVIEKMHHVNMTPEFKGLYIVRENKALQKKFADYQTNGEIICKCGQAWGTMMVHKGLDLPCLKIRNFVVNFKNNSPKKQYKKWVELPIRFPDLDYSEYCLYSDED

From paper PMC5834211
